Measurements: the supplement of paper PMC8728848
Some of the results follow.

How the values were obtained:
Test in all cases: glycan array binding signal (z-score within array); higher = stronger binding
Settings in all cases: glycan notation: IUPAC condensed, linker removed
[1] = biological target: GalNAc(b1-4)Gal(b1-4)Glc
Method in brief: (§1)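 Glycan array binding is given as a within-array Z-score, which can be read as non-binding when negative. The arrays, 3228 of them, came from the Consortium for Functional Glycomics database and were retained only where the protein sequence was available. Z-scores were averaged across arrays of the same protein sequence at different concentrations or buffers and across linkers.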

[2] = biological target: GalNAc(b1-4)GlcNAc
Method in brief: as §1

[3] = biological target: GalNAc(b1-4)GlcNAc(b1-2)Man
Method in brief: as §1

[4] = biological target: GalNAc(b1-4)GlcNAc(b1-2)Man(a1-3)[GalNAc(b1-4)GlcNAc(b1-2)Man(a1-6)]Man(b1-4)GlcNAc(b1-4)GlcNAc
Method in brief: as §1

[5] = biological target: GalNAc(b1-4)GlcNAc(b1-3)GalNAc(b1-4)GlcNAc
Method in brief: as §1

[6] = biological target: GalNAc(b1-4)GlcNAc6S
Method in brief: as §1

[7] = biological target: GalNAc(b1-6)GalNAc
Method in brief: as §1

[8] = biological target: GalNAc3S(b1-4)GlcNAc
Method in brief: as §1

[9] = biological target: GalNAc3S(b1-4)GlcNAc3S
Method in brief: as §1

[10] = biological target: GalNAc3S(b1-4)[Fuc(a1-3)]GlcNAc
Method in brief: as §1

[11] = biological target: GalNAc4S6S(b1-4)GlcNAc
Method in brief: as §1

[12] = biological target: GalNAc6S(b1-4)GlcNAc
Method in brief: as §1

[13] = biological target: Glc(a1-4)Glc
Method in brief: as §1

[14] = biological target: Glc(a1-4)Glc(a1-4)Glc(a1-4)Glc
Method in brief: as §1

[15] = biological target: Glc(a1-6)Glc(a1-6)Glc
Method in brief: as §1

[16] = biological target: Glc(a1-6)Glc(a1-6)Glc(a1-6)Glc
Method in brief: as §1

[17] = biological target: Glc(b1-4)Glc
Method in brief: as §1

[18] = biological target: Glc(b1-6)Glc
Method in brief: as §1

[19] = biological target: GlcA(b1-3)Gal
Method in brief: as §1

[20] = biological target: GlcA(b1-3)GlcNAc
Method in brief: as §1

[21] = biological target: GlcA(b1-6)Gal
Method in brief: as §1

[22] = biological target: GlcA3S(b1-3)Gal(b1-4)GlcNAc(b1-2)Man
Method in brief: as §1

[23] = biological target: GlcA3S(b1-3)Gal(b1-4)GlcNAc(b1-3)Gal(b1-4)Glc
Method in brief: as §1

[24] = biological target: GlcNAc(a1-3)Gal(b1-4)GlcNAc
Method in brief: as §1

[25] = biological target: GlcNAc(a1-4)Gal(b1-3)GlcNAc
Method in brief: as §1

[26] = biological target: GlcNAc(a1-4)Gal(b1-4)GalNAc
Method in brief: as §1

[27] = biological target: GlcNAc(a1-4)Gal(b1-4)GlcNAc
Method in brief: as §1

[28] = biological target: GlcNAc(a1-4)Gal(b1-4)GlcNAc(b1-3)Gal(b1-4)Glc
Method in brief: as §1

[29] = biological target: GlcNAc(a1-4)Gal(b1-4)GlcNAc(b1-3)Gal(b1-4)GlcNAc
Method in brief: as §1

[30] = biological target: GlcNAc(a1-4)Gal(b1-4)GlcNAc(b1-3)Gal(b1-4)GlcNAc(b1-3)Gal(b1-4)GlcNAc
Method in brief: as §1

[31] = biological target: GlcNAc(a1-4)Gal(b1-4)GlcNAc(b1-3)Gal(b1-4)[Fuc(a1-3)]GlcNAc(b1-3)Gal(b1-4)[Fuc(a1-3)]GlcNAc
Method in brief: as §1

[32] = biological target: GlcNAc(a1-6)Gal(b1-4)GlcNAc
Method in brief: as §1

[33] = biological target: GlcNAc(b1-2)Gal(b1-3)GalNAc
Method in brief: as §1

[34] = biological target: GlcNAc(b1-2)Man(a1-3)[GlcNAc(b1-2)Man(a1-6)]Man(b1-4)GlcNAc(b1-4)GlcNAc
Method in brief: as §1

[35] = biological target: GlcNAc(b1-2)Man(a1-3)[GlcNAc(b1-2)Man(a1-6)]Man(b1-4)GlcNAc(b1-4)[Fuc(a1-6)]GlcNAc
Method in brief: as §1

[36] = biological target: GlcNAc(b1-2)Man(a1-3)[GlcNAc(b1-4)][GlcNAc(b1-2)Man(a1-6)]Man(b1-4)GlcNAc(b1-4)GlcNAc
Method in brief: as §1

[37] = biological target: GlcNAc(b1-2)Man(a1-3)[GlcNAc(b1-4)][GlcNAc(b1-2)Man(a1-6)]Man(b1-4)GlcNAc(b1-4)[Fuc(a1-6)]GlcNAc
Method in brief: as §1

B1: rAAL-2 (Agrocybe aegerita) (protein)
chain: MTSNVITQDLPIPVASRGFADIVGFGLDGVVIGRNAVNLQPFLAVKNFAQNAGGWLTTKHVRLIADTTGTGKGDIVGFGNAGVYVSVNNGKNTFADPPKMVIANFGYDAGGWRVEKHLRYLADIRKIGRADIIGFGEKGVLVSRNNGGLNFGPATLVLKDFGYDAGGWRLDRHLRFLADVTGNGHLDIVGFGDKHVFISRNNGDGTFAPAKSVIDNFCIDAGGWKIGDHPRFVADLTGDGTADIIGCGKAGCWVALNNGGGVFGQVKLVINDFGTDKGWQAAKHPRFIADLTGNGRGDVVGFGNAGVYVALNNGDGTFQSAKLVLKDFGVQQGWTVSKHRRFVVDLTGDGCADIIGFGEKETLVSYNDGKGNFGPVKALTNDFSFSGGKWAPETTVCWMANLDSSRH
- glycan array binding signal (z-score) [1]: -0.208
- glycan array binding signal (z-score) [2]: -0.32
- glycan array binding signal (z-score) [3]: -0.333
- glycan array binding signal (z-score) [4]: 0.093
- glycan array binding signal (z-score) [5]: -0.584
- glycan array binding signal (z-score) [6]: -0.107
- glycan array binding signal (z-score) [7]: -0.316
- glycan array binding signal (z-score) [8]: -0.228
- glycan array binding signal (z-score) [9]: -0.436
- glycan array binding signal (z-score) [10]: -0.279
- glycan array binding signal (z-score) [11]: 0
- glycan array binding signal (z-score) [12]: -0.529
- glycan array binding signal (z-score) [13]: -0.269
- glycan array binding signal (z-score) [14]: -0.276
- glycan array binding signal (z-score) [15]: -0.139
- glycan array binding signal (z-score) [16]: -0.241
- glycan array binding signal (z-score) [17]: -0.305
- glycan array binding signal (z-score) [18]: -0.302
- glycan array binding signal (z-score) [19]: -0.159
- glycan array binding signal (z-score) [20]: -0.054
- glycan array binding signal (z-score) [21]: -0.188
- glycan array binding signal (z-score) [22]: -0.11
- glycan array binding signal (z-score) [23]: -0.402
- glycan array binding signal (z-score) [24]: 4.67
- glycan array binding signal (z-score) [25]: 3.84
- glycan array binding signal (z-score) [26]: 1.71
- glycan array binding signal (z-score) [27]: 3.35
- glycan array binding signal (z-score) [28]: 4.64
- glycan array binding signal (z-score) [29]: 2.8
- glycan array binding signal (z-score) [30]: 6.15
- glycan array binding signal (z-score) [31]: 3.9
- glycan array binding signal (z-score) [32]: 2.93
- glycan array binding signal (z-score) [33]: -0.431
- glycan array binding signal (z-score) [34]: 0.102
- glycan array binding signal (z-score) [35]: -0.279
- glycan array binding signal (z-score) [36]: -0.244
- glycan array binding signal (z-score) [37]: -0.068
